Consider 109 molecules from PubChem BioAssay AID1240 (Sanford-Burnham Center for Chemical Genomics, 2008).

The structures appear in SMILES notation. Out of some 50,000 compounds screened, about 800 (1.6%) showed an effect of 50% or more. The list shows a part of the results.

The assay addresses Bcl-2-like protein 10 (Homo sapiens) (UniProt Q9HD36). The experiment in a line: TR3 peptide-Bcl-B binding displacers, biochemical primary FP assay, phenotype converters (AID 1240).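 Note: 0% = Bcl-B with tracer peptide and DMSO and 100% = tracer peptide lacking Bcl-B.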 The following applies: GST-Bcl-B / FITC-TR3 peptide fluorescence polarization; stronger effect = higher value; compound at 3.75 mg/L. (In general: In fluorescence polarisation assays a small probe gives low polarisation when free and higher when bound to something large.)
Chain of UniProt Q9HD36 (Q9HD36 whole entry, looked up): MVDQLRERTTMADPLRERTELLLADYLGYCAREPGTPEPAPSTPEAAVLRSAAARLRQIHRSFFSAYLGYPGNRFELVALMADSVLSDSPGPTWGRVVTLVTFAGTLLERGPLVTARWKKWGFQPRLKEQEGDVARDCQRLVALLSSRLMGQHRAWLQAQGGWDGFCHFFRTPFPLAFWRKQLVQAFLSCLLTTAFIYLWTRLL
`CCOC(=O)C(Nc1cccc(F)c1)c1ccccc1` (centres undefined): the displacement was 5.4%.
To `Cc1ccc(N(CC(=O)Nc2c(C)cccc2C)S(=O)(=O)c2ccc(F)cc2)cc1` belongs 10.2%.
In the case of `CC(=O)C1=C(O)C(=O)N(CC2CCCO2)C1c1ccc(Cl)cc1` (centres undefined) it was 1.3%.
As for `NS(=O)(=O)c1ccc(CNC2CC(=O)N(CCc3ccccc3)C2=O)cc1` (centres undefined), the displacement is -2.3%.
In the case of `COc1cc(NS(=O)(=O)c2ccc(NC(=O)c3c(F)cccc3F)cc2)ncn1`, the displacement amounted to 14.5%.
To `CCOc1cc(OCC)cc(C(=O)Nc2ccc(N(CC)CC)cc2)c1` belongs 3.5%.
In the case of `Cc1ccc2oc(-c3cccc(NC(=S)NC(=O)c4ccco4)c3C)nc2c1` it was 5.4%; in that of `O=C(CCN1C(=O)/C(=C/c2ccccc2Cl)SC1=S)Nc1ncc(Cc2ccccc2Cl)s1`, 7.9%; in that of `COc1ccc(NCc2nc3ccccc3n2Cc2ccccc2)cc1`, 9.3%.
To `O=C(c1ccncc1)N1CCN(C(=O)c2cccc(F)c2)CC1` belongs 3.8%; to `CCOC(=O)c1ccc(NC(=O)CC(C)=O)cc1`, -3.8%.
As to `COc1cc(-c2nc3sc(C)c(C)c3c(=O)[nH]2)ccc1C`, the displacement was -14.9%.
To `CC(C)c1ccc(C2CC(=O)Nc3c2ccc2ccccc32)cc1` (centres undefined) belongs -5.1%.
As for `CCOc1cc(/C=N\NC(=O)c2cnccn2)ccc1O`, the displacement is -6.7%.
In the case of `COc1ccc(-n2sc3c(c2=S)-c2ccc(OC)cc2NC3(C)C)cc1` it was 16.4%.
To `Cc1ccc(C(=O)Oc2ccc(NS(=O)(=O)c3cccc([N+](=O)[O-])c3)cc2)cc1` belongs -0.9%.
In the case of `CCOC(=O)c1c(N)sc(C(=O)Nc2ccccc2F)c1C` it was 12.7%; in that of `COc1ccc(OCC(=O)Nc2sc3c(c2C(N)=O)CCCC3)cc1`, 11.4%; in that of `COc1cccc(/C=C2\SC(=S)N(NC(=O)c3ccccc3)C2=O)c1`, -0.8%.
Regarding `CCOc1cc(OCC)cc(C(=O)Nc2ccc(OC(F)(F)F)cc2)c1`, the displacement was determined as 2.5%.
In the case of `CCCNS(=O)(=O)c1ccccc1[N+](=O)[O-]` it was 18.9%.
To `O=C1/C(=C/c2ccc([N+](=O)[O-])o2)SC(=S)N1Cc1ccccc1` belongs 11.6%; to `Cc1cc(NC(=O)CCN2C(=O)/C(=C/c3ccc(F)cc3)SC2=S)no1`, 19%.
In the case of `C=CCN1C(=O)/C(=C\c2ccc(OCC)cc2)C(=O)NC1=S` it was -30%; in that of `O=c1c2ccccc2nc(SCc2ccc(Br)cc2)n1-c1ccccc1`, -14.3%.
`O=C(Nc1c(C(=O)N2CCC(Cc3ccccc3)CC2)cnn1-c1ccccc1)c1ccc(Br)cc1`: the displacement was -6.5%.
To `CCCCOc1ccc(/C=C2/C=C(c3ccccc3)OC2=O)cc1` belongs 5.7%; to `O=[N+]([O-])c1ccc2nc(Sc3nc4ccccc4[nH]3)sc2c1`, -11.3%; to `CCOc1ccc(C(=O)Nc2ccc(NC(=O)c3ccccc3Cl)cc2)cc1Br`, -3.3%.
To `O=C(Nc1ccccc1Cl)N1CCN(c2ccccn2)CC1` belongs 6.2%; to `N#Cc1c(/N=C/c2ccc(O)cc2)sc2c1CCCC2`, 42%; to `O=C1N=c2ccccc2=C1c1sc(=S)n(NC(=O)c2ccccc2)c1O`, 10.5%.
In the case of `COCCOC(=O)c1c(C)oc2ccc(OC(=O)N3CCOCC3)cc12` it was 12.6%; in that of `CN(C)c1cccc(C(=O)Nc2cc(Cl)ccc2Cl)c1`, -13.6%; in that of `O=C1c2ccccc2C(=O)C1C1=CC(c2ccccc2)C(c2ccccc2)N=N1` (centres undefined), -10%.
`CC(C)(C)c1ccc(Oc2coc3cc(O)ccc3c2=O)cc1`: the displacement worked out at 4.5%.
In the case of `C/C(=C1\SC(=S)NC1=O)c1cccc([N+](=O)[O-])c1` it was 12.7%; in that of `COc1ccc(N2C(=O)NC(=O)/C(=C/c3ccc(-c4ccc(C(=O)O)cc4)o3)C2=O)cc1`, -10.9%; in that of `CCOCCOC(=O)c1ccc(NC(=O)COc2ccc(Br)cc2)cc1`, -2.5%.
`CCOc1ccc(C(=O)Nc2cccc(-c3nc4ccccc4s3)c2)cc1`: the displacement amounted to 4.1%.
For `COc1cc(OC)c(OC)cc1CN1CCN(Cc2cc(OC)c(OC)cc2Br)CC1`, the displacement came out at 1.2%.
Take `CSc1ccccc1C(=O)O/N=C(\c1ccncc1)c1ccc([N+](=O)[O-])cc1`: the displacement is -2.5%.
In the case of `CC(=O)COc1ccc2c(C)cc(=O)oc2c1` it was 23.3%.
For `COc1ccccc1CC(=O)NCc1ccco1`, the displacement was found to be 10.3%.
On to `O=C(Nc1ccc(S(=O)(=O)Nc2nccs2)cc1)c1cc(-c2ccc(Br)cc2)nc2ccccc12`, for which the displacement is -5.1%.
To `C#CCn1cc(/C=C(/C#N)C(=O)Nc2ccc(OC)cc2)c2ccccc21` belongs -10.8%.
To `COCCNC(=O)CN(c1ccc(OC)cc1)S(C)(=O)=O` belongs 4.5%.
In the case of `Cc1cc(OCC(=O)Nc2c(C(C)C)cccc2C(C)C)cc(C)c1Cl` it was 12.8%; in that of `Cc1nc(SCC(=O)OCN2C(=O)c3ccccc3C2=O)n[nH]1`, 13.6%; in that of `CC(C)(C)c1ccc(C2/C(=C(\O)c3ccc(F)cc3)C(=O)C(=O)N2c2nncs2)cc1` (centres undefined), 11.3%.
`Cc1cc(/C=N/NC(N)=O)c(C)n1-c1cccc(Cl)c1`: the displacement was -6.3%.
To `CC(=O)C(C(C)=O)C1c2ccccc2Oc2ccc(Cl)cc21` (centres undefined) belongs 9.1%; to `COc1cccc(C2(c3cccc(OC)c3)CC2C(=O)Nc2cccc3ccccc23)c1` (centres undefined), 19.4%; to `COc1cc(C2Nc3ccc(C(=O)c4ccccc4)cc3NC3=C2C(=O)CCC3)ccc1O` (centres undefined), -3.1%.
With `Cc1nc(SCc2ccc([N+](=O)[O-])cc2)nc2ccccc12`, the displacement stood at 0.4%.
To `CN1CCN(C(=O)/C(=C/c2cccc([N+](=O)[O-])c2)NC(=O)c2cccs2)CC1` belongs 4.1%; to `COc1ccc(C(=O)Nc2cc3nn(-c4ccc(C)cc4)nc3cc2C)cc1`, -7.9%; to `Cc1ccc(N2C(=O)CC(N3CCN(C)CC3)C2=O)cc1` (centres undefined), 3.6%.
To `CCOC(=O)c1sc(NC(=O)COc2ccccc2C)c(C(=O)OCC)c1C` belongs -10.4%; to `O=C(O)c1ccc(NC(=O)c2ccc(Cl)cc2)cc1`, -3.6%.
In the case of `COc1ccc(CCNC(=O)c2cccc(Br)c2)cc1OC` it was -11.8%; in that of `CC1(C)Cc2c(c(-c3ccccc3)[nH]c(=O)c2C#N)CO1`, -2.3%; in that of `COC(=O)c1cc(Nc2nc3ccccc3nc2NS(=O)(=O)c2ccccc2)ccc1Cl`, 158%.
Turning to `Cc1ccccc1/C=C1\SC(=NCc2ccccc2)N(Cc2ccccc2)C1=O`, the displacement came out at 15.8%.
To `CC(=O)Nc1ccc(NC(=O)c2ccc(CN3CCOCC3)cc2)cc1` belongs -22.6%; to `CC(=O)Nc1ccc(NC(=O)N2CCOCC2)cc1`, 14.1%; to `CCc1cc(=O)oc2cc(OCC(=O)C(C)(C)C)ccc12`, 13.1%.
In the case of `COc1ccc(OC)c(NC(=S)NC(NC(C)=O)C(Cl)(Cl)Cl)c1` (centres undefined) it was -6.3%.
For `COC(=O)C1C(c2ccccc2)=NN(c2ccccc2)C1C(=O)OC` (centres undefined), the displacement stood at 16.9%.
To `Cc1ccc(C(=O)Nc2cccc(C(=O)O)c2)cc1S(=O)(=O)N1CCOCC1` belongs 1%.
In the case of `COc1ccc(/C=C2/SC(=O)N(c3ccccc3)C2=O)c(OC)c1` it was 5.9%.
Turning to `C=CCOC(=O)C1=C(C)NC(C)=C(C(=O)OCC=C)C1c1cccs1`, the displacement came out at 7.8%.
In the case of `COC(=O)C1=C(C)NC(=S)NC1c1cccc(Cl)c1` (centres undefined) it was -15%; in that of `CC(=O)Nc1ccc(S(=O)(=O)Nc2cccc(-c3nc4ccccc4o3)c2)cc1`, -5.1%; in that of `Cn1c(=O)c2[nH]c(N/N=C(/C#N)C(N)=O)nc2n(C)c1=O`, 7.6%.
As to `O=C(Nc1ccc2oc(-c3ccccc3)nc2c1)c1ccc(Br)o1`, the displacement was -2.5%.
As to `O=c1c2cc([N+](=O)[O-])ccc2[nH]c2c1[nH]c1ccccc12`, the displacement is -9.8%.
Turning to `COc1ccc(N/C=C(\C#N)C(N)=O)cc1`, the displacement is 9%.
To `COc1ccc2c(c1OC)C(=O)OC2CC(=O)c1cc(Cl)ccc1O` (centres undefined) belongs -6.9%; to `CC(NC(=O)CSc1ccccn1)c1ccccc1` (centres undefined), -10.3%; to `COc1ccccc1C(=O)N1CCN(Cc2ccc3ccccc3c2)CC1`, 9.7%.
In the case of `Cc1ccc(N2C(=O)/C(=C/c3ccc(O)cc3)C(=O)NC2=S)cc1`, the displacement stood at 10.6%.
To `Cc1ccc(S(=O)(=O)/N=C2\C=CC(=O)C=C2Cl)cc1` belongs 47.3%.
To `CCC(=NCCc1ccccc1)C1=C(O)CCC1=O` belongs 1.4%; to `O=C(c1ccc(Br)cc1)N1CCC(c2ccccc2)C1` (centres undefined), -5%; to `COC(=O)c1cc(-c2ccc(/C=N/n3cnnc3)o2)ccc1Cl`, -15.3%.
Consider `CCc1cccc(NC(=O)c2cnccn2)c1`, for which the displacement is -3.2%.
In the case of `O=C(CCCO)c1ccc2c(c1)OCCO2` it was 7.8%.
To `COc1ccc(C2C(C(C)=O)=C(O)C(=O)N2c2nc3ccccc3s2)cc1OC` (centres undefined) belongs -10.4%.
In the case of `COC(=O)C1=C(C)N(c2ccc(F)cc2)C(=O)/C1=C\c1ccc([N+](=O)[O-])cc1` it was -7.3%; in that of `Cc1ccc(-c2cc(C(=O)N/N=C/c3ccc(Cl)cc3)[nH]n2)cc1`, -14.2%; in that of `Cc1cccc(N2C(=O)CC(Sc3nc4ccccc4s3)C2=O)c1` (centres undefined), 3.6%.
Turning to `COc1cc(C2CC(C(F)(F)F)n3ncc(C(=O)N4CCN(Cc5ccccc5)CC4)c3N2)cc(OC)c1OC` (centres undefined), the displacement amounted to 10.5%.
In the case of `O=C(O)c1ccccc1Nc1nc2nc3ccccc3c(=O)n2cc1Br` it was -4.6%; in that of `Cc1ccc(-c2oc3ccccc3c(=O)c2O)cc1`, -5.6%; in that of `COc1ccc(/C(N)=N/OC(=O)c2ccc(C)c([N+](=O)[O-])c2)cc1`, -1.8%.
In the case of `O=C(Nc1ccc(N2CCOCC2)cc1)c1cc2ccccc2o1` it was 10.3%; in that of `CCCCCc1ccc(-c2ccc(OC(F)F)cc2)nc1`, -0.8%.
In the case of `CC(=O)C(C)Oc1ccc2c3c(c(=O)oc2c1)CCCC3` (centres undefined) it was -1.9%.
Regarding `CC1=CC(C)C2(CO)COC(c3ccccc3)C1C2C` (centres undefined), the displacement was found to be 6.7%.
`CCCN1C(=O)/C(=C/c2nc3ccccc3c(=O)n2-c2ccccc2[N+](=O)[O-])c2ccccc21`: the displacement came to 1.7%.
To `COc1ccc(CC(=O)Nc2ccc(NC(=O)c3ccc(Cl)cc3Cl)cc2)cc1OC` belongs -1.6%.
To `O=C(O)CCCCCN1C(=O)/C(=C/c2cccc(F)c2)SC1=S` belongs -14.1%; to `COc1ccc(OC)c(S(=O)(=O)n2cnc(C)c2)c1`, 1.4%.
In the case of `COc1ccc2c(c1OC)C(=O)OC2Nc1cccc(C)n1` (centres undefined) it was -23.2%; in that of `COc1ccc(S(=O)(=O)Nc2ccccc2C(N)=O)cc1Br`, 14.1%; in that of `Cc1cc(C)c2oc(-c3ccc(NC(=O)/C=C/c4cccc([N+](=O)[O-])c4)cc3)nc2c1`, 1.5%.
Turning to `O=[N+]([O-])c1ccc2nc(SCc3c[nH]c4ccccc34)sc2c1`, the displacement is -4.8%.
In the case of `Cc1ccc(-c2nc3cc(NC(=O)COc4ccccc4[N+](=O)[O-])ccc3o2)cc1` it was -5.1%.
